Laboratory results as given in the supplement of paper PMC7826260.
Some of the results follow. The data describe in vitro nicking of single-stranded DNA by Rep domains for 1 h at 37 °C with 3 µM enzyme; only the middle of the 90-letter strands is printed. The score is log2 (uncut reads / reads without enzyme); strong cutting gives strongly negative numbers. There is no active / inactive call. Reads are scaled to the total; where an enzyme cuts many sequences, the uncut ones exceed 0.

Experiments:
Experiment in all cases: uncleaved DNA left, log2 of reads against the no-enzyme library (log2 ratio); higher = less cleavage (more negative = more Rep cleavage of the k-mer); sequences stand for … in CTCGTCCG…ACCGGAGA
[1] = system: T1, Rep nickase domain of Muscovy duck circovirus
T1 sequence (residues 1-111 of Rep, tag left off): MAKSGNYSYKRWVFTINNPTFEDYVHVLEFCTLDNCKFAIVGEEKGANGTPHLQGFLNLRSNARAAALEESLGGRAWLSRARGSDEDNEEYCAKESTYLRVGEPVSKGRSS
Experimental: (§1)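 A pool of 90-nt single-stranded DNAs with seven random bases just before the constant AC of the nick site (name = the seven bases) was cut by 3 µM recombinant His6-SUMO-tagged Rep nickase domain (300 nM DNA, 50 mM HEPES pH 8.0, 50 mM NaCl, 1 mM MnCl2, 1 h, 37 °C, three replicates). Uncut DNA was amplified and sequenced.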

[2] = system: T2, Rep nickase domain of banana bunchy top virus
T2 sequence (residues 1-94 of Rep, tag left off): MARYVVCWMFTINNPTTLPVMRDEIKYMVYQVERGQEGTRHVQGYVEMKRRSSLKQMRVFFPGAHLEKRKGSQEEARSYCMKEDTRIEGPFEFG
Experimental: as §1

[3] = system: T3, Rep nickase domain of cabbage leaf curl virus
T3 sequence (residues 1-116 of Rep, tag left off): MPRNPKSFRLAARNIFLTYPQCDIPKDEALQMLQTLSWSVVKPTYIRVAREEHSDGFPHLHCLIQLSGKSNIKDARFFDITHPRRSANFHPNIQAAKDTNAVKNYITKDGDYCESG
Experimental: as §1

[4] = system: T4, Rep nickase domain of chickpea chlorotic dwarf virus
T4 sequence (residues 1-124 of Rep, tag left off): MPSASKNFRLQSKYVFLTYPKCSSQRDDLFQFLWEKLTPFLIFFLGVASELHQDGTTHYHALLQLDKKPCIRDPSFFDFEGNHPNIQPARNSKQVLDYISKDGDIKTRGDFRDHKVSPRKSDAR
Experimental: as §1

[5] = system: T5, Rep nickase domain of faba bean necrotic yellows virus
T5 sequence (residues 1-98 of Rep, tag left off): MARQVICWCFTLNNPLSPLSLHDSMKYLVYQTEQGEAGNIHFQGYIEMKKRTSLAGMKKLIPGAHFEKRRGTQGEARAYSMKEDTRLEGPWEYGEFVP
Experimental: as §1

[6] = system: T6, Rep nickase domain of maize striate mosaic virus
T6 sequence (residues 1-117 of Rep, tag left off): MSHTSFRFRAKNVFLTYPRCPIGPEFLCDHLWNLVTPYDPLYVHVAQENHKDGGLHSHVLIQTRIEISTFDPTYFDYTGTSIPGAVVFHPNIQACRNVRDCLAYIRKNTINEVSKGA
Experimental: as §1

[7] = system: T7, Rep nickase domain of porcine circovirus 2
T7 sequence (residues 2-116 of Rep, tag left off): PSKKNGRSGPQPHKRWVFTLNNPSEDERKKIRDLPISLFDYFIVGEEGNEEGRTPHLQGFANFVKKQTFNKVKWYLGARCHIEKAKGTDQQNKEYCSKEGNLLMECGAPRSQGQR
Experimental: as §1

[8] = system: T8, Rep nickase domain of tomato golden mosaic virus
T8 sequence (residues 1-124 of Rep, tag left off): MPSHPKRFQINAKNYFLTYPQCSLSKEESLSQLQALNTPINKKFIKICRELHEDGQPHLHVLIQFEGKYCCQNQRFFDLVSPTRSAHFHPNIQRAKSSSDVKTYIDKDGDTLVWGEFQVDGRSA
Experimental: as §1

[9] = system: T9, Rep nickase domain of tomato yellow leaf curl virus
T9 sequence (residues 1-136 of Rep, tag left off): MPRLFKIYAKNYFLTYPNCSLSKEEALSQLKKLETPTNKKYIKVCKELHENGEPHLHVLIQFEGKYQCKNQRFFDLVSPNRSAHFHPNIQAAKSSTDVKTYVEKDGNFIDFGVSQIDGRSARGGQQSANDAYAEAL
Experimental: as §1

[10] = system: T10, Rep nickase domain of wheat dwarf virus
T10 sequence (residues 1-137 of Rep, tag left off): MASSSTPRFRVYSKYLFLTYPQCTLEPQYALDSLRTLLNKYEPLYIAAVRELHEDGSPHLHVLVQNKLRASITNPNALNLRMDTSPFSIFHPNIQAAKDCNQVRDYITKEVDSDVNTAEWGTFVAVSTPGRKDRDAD
Experimental: as §1

Sequence	uncleaved DNA left (log2) [1]	uncleaved DNA left (log2) [2]	uncleaved DNA left (log2) [3]	uncleaved DNA left (log2) [4]	uncleaved DNA left (log2) [5]	uncleaved DNA left (log2) [6]	uncleaved DNA left (log2) [7]	uncleaved DNA left (log2) [8]	uncleaved DNA left (log2) [9]	uncleaved DNA left (log2) [10]
CCCCGTC	-0.138	-0.309	-0.12	-0.228	-0.122	-0.499	0.00788	-0.119	-0.19	-0.257
AGGGAGA	0.137	0.0702	0.39	1.33	0.228	1.38	0.205	0.215	0.111	0.116
TTGGCTA	-0.0471	-0.0284	0.00573	-0.239	-0.0719	-0.0854	-0.0568	-0.128	-0.0622	-0.17
AACGCAA	0.0759	-0.0615	-0.174	-0.472	0.00633	-0.407	0.0465	-0.0161	-0.11	-0.069
CGCTAGC	-0.219	0.0265	0.215	0.536	0.0439	0.214	-0.0829	-0.0768	-0.0592	-0.074
AACCAAA	0.0203	-0.068	-0.108	-0.741	-0.0295	-0.755	-0.316	-0.014	0.00933	0.111
GTCCTCG	-0.129	-0.027	0.0904	0.326	-0.167	0.598	0.0578	-0.0123	-0.0665	-0.0183
ATAAAGT	-0.0117	0.0756	0.0627	-0.608	-0.024	-0.939	-0.0716	0.0156	-0.0989	-0.0314
TGCGGGG	0.138	-0.0746	0.285	0.564	0.00254	1.05	0.0637	0.0998	-0.117	-0.0829
CTCCATT	-0.156	0.0027	-0.0458	-1.77	-0.148	-0.744	-0.736	-0.116	-0.0162	0.00198
CCGTGGA	-0.0374	0.00278	0.257	0.31	-0.129	0.113	0.0996	-0.0581	-0.155	-0.0537
AGCCCTG	0.137	0.197	0.258	0.826	0.17	1.84	0.122	0.223	0.0861	0.223
AGGCTAC	0.0827	0.0223	0.0501	-0.931	0.0442	0.289	-0.03	-0.000798	0.0453	0.0649
CTACCAA	0.122	0.0505	-0.0894	-1.89	0.0306	-0.48	-0.516	-0.0143	0.0408	0.0641
CGTAAAT	-0.0135	-0.0573	-0.0397	-0.187	0.0181	-0.208	-0.574	-0.0597	0.0229	0.0137
GATAGCT	0.0655	-0.0263	0.038	-0.861	0.0757	-0.3	-0.158	0.0351	-0.0104	0.0573
CGCTAGG	0.0891	0.0297	0.0617	0.808	0.228	0.386	0.197	0.146	0.124	0.121
ACAGATG	0.136	0.06	-0.251	-0.00444	0.215	-0.539	0.292	0.144	0.108	0.0256
CCCGGAT	-0.067	0.0635	0.387	1.58	0.0825	1.83	0.135	-0.029	-0.0667	0.0155
GCGATGT	-0.0011	-0.0934	0.00786	0.564	-0.0434	1.31	0.0439	-0.107	-0.0934	-0.0628
AAATCTT	-4.17	-1.2	-4.56	-3.61	-0.251	-3.18	-4.53	-4.12	-0.702	-4.15
AATTATG	-0.104	-0.125	-0.614	-0.594	-0.0954	-1.07	0.0524	0.00927	0.0126	-0.0788
ACTGAAA	-0.109	-0.0764	-0.135	0.601	-0.0549	0.202	-0.103	-0.0535	-0.188	0.0918
AGCGCCC	-0.0345	-0.0101	0.134	0.586	-0.049	0.983	-0.0723	0.0542	-0.0297	0.0224
ACAGGTC	-0.07	-0.0537	-0.19	-0.0384	0.0585	-0.724	0.113	0.0222	-0.155	-0.0563
AAGTGAG	0.0411	0.0284	-0.394	-0.398	0.0749	-0.834	0.291	0.117	0.0611	-0.0705
AAATCCA	-0.374	-0.0257	-1.84	-2.44	-0.0272	-1.16	-1.27	-0.337	-0.00833	-0.847
GCAGTAA	-0.0187	0.156	0.0364	0.316	0.1	0.008	0.0633	0.0386	0.0732	0.142
GTTCTTT	0.039	0.0138	0.329	0.711	-0.074	1.7	0.0489	0.122	0.158	0.0437
AGACGGC	-0.0105	0.0718	0.329	0.692	0.108	0.349	0.116	0.0674	-0.128	0.0601
